In all, about 310,000 compounds went through this assay and about 2,200 (0.71%) showed an effect of 50% or more. Effects have a minus sign here. Some of the results follow.
Molecular target: human ether-à-go-go-related gene (hERG) potassium channel (human, UniProt Q12809)
Assay: primary screen, population patch clamp on CHO cells stably expressing hERG

Chain of human ether-à-go-go-related gene (hERG) potassium channel (Q12809 whole entry, looked up): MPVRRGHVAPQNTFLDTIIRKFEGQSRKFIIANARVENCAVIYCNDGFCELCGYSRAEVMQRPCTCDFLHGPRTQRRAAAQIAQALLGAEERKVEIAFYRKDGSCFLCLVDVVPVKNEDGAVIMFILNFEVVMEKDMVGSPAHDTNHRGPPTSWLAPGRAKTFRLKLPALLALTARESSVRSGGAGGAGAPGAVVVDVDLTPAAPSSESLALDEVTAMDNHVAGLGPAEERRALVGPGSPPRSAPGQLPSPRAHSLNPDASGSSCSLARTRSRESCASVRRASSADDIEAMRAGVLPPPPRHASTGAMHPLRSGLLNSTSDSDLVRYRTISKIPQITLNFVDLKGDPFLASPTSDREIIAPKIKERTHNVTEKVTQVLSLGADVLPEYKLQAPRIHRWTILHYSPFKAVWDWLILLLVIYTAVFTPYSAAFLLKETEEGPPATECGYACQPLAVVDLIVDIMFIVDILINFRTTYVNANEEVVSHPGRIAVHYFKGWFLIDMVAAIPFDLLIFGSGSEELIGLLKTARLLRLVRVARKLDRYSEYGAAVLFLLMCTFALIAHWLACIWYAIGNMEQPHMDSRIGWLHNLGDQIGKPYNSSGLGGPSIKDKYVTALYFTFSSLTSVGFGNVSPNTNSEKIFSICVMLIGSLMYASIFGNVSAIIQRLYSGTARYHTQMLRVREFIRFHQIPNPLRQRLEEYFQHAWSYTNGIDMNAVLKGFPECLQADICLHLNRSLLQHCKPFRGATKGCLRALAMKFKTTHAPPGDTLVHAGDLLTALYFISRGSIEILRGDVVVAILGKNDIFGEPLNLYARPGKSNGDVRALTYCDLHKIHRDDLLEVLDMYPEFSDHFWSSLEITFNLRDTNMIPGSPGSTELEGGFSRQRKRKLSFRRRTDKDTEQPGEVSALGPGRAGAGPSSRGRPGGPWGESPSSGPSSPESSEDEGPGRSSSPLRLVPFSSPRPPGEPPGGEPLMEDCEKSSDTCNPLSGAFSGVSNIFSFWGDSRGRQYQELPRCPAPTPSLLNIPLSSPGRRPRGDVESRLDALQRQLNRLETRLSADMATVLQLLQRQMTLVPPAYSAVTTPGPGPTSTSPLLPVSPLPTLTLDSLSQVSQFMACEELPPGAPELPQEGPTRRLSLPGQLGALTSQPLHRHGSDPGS

Row | Compound | hERG current change (%, negative = inhibition) at 1uM
1 | CC1CCCCC1NC(=O)COC(=O)COc1ccccc1Cl (stereo not shown) | 10.5%
2 | Cc1cc(N2CCOCC2)nc2ccc(NC(=O)CCC(=O)N3CCN(c4ccc(F)cc4)CC3)cc12 | 21.6%
3 | Cc1cnc(C(=O)OCc2nc3ccsc3c(=O)[nH]2)cn1 | 11.2%
4 | Cc1ccc(NC(=O)CCn2c(=O)[nH]c3ccsc3c2=O)cc1 | 5.73%
5 | COc1ccc(S(=O)(=O)NCC(=O)Nc2cccc(C)c2C)cc1OC | 4.26%
6 | CN(C)c1ccc(NC(=O)Cn2cc3c(n2)CCCC3)cc1 | 14.4%
7 | CC(=O)Nc1sc2c(c1C(N)=O)CCN(Cc1ccccc1)C2.Cl | 3.9%
8 | CCn1cc(Br)c(C(=O)N2CCN(c3ccccc3)CC2)n1 | 8.45%
9 | O=C(NCc1ccco1)/C(=C/C=C\c1ccccc1)NC(=O)c1ccc(Br)o1 | -8.24%
10 | COCC1CCCN(Cc2nc(C(c3ccccc3)c3ccccc3)no2)C1 (stereo not shown) | 0.832%
11 | Cc1nccc2oc(=O)c(NC(=O)c3ccc(Cl)cc3)cc12 | 0.16%
12 | CCC(C)(C(=O)NC1CCCC1)N(Cc1cccs1)C(=O)c1ccccn1 (stereo not shown) | 9.84%
13 | O=C1c2ccccc2C(=O)C1c1ccccn1 | 8.84%
14 | Cc1ccc(C(=O)N/C(=C\c2cn(-c3ccccc3)nc2-c2ccccc2)C(=O)N2CCOCC2)cc1 | 11.5%
15 | Cc1ccc(NC(=O)c2cc(S(=O)(=O)N(C)C)ccc2N2CCCC2)cc1S(=O)(=O)N(C)C | 5.68%
16 | COc1ccc(NC(=O)COC(=O)CCCc2c[nH]c3ccccc23)cc1 | -3.54%
17 | COC(=O)C1=C(c2cc3ccccc3s2)C[C@@H]2CC[C@H]1N2C(=O)NCC1CC1 | 10.7%
18 | O=C(Nc1ccc(Oc2cccnc2)cc1)c1cccc([N+](=O)[O-])c1 | -1.33%
19 | COC(=O)c1ccsc1NC(=O)CCc1ccccc1 | 16.6%
20 | COc1cc(/C=C2/NC(=O)N(CC(=O)Nc3cccc(C)c3)C2=O)ccc1OCC(N)=O | 18.7%
21 | O=C(COC(=O)c1ccc(CNS(=O)(=O)c2ccc(F)c(Cl)c2)cc1)NCC1CCCCC1 | -0.534%
22 | O=C(Nc1ccc(S(=O)(=O)N2CCCCC2)cc1)C1CC(=O)N(c2ccc(F)cc2)C1 (stereo not shown) | 19.8%

Row | Compound | hERG current change (%, negative = inhibition) at 1uM
23 | Cc1cccc(N/N=C/c2ccccc2O)c1 | 8.13%
24 | CCOc1ccc(Br)cc1CNCCN1CCOCC1 | 16.4%
25 | N#Cc1cn(Cc2cccc(Cl)c2)c2ccccc12 | 0.952%
26 | Cc1cccc(C)c1NC(=O)NC1CCc2ccccc21 (stereo not shown) | 14.2%
27 | Cc1cc(=O)[nH]c(SCC(=O)c2ccc(C(C)C)cc2)n1 | 7.25%
28 | O=C(CN(c1ccccc1F)S(=O)(=O)c1ccccc1)Nc1ccccc1C(=O)N1CCOCC1 | 9.33%
29 | CN(C(=O)N1CCN(c2ccccn2)CC1)c1ccccc1 | 16.8%
30 | Cn1nc(C(=O)NCc2cccs2)c2ccccc2c1=O | 16.3%
31 | NC(=O)C1CCN(C(=S)NCc2ccc3c(c2)OCO3)CC1 | 14.1%
32 | O=C(Nc1ccc2c(c1)OCO2)c1cncc(Br)c1 | 25.2%
33 | CC1=[N+]([O-])C(C)(C)C(C)N(O)C1=O (stereo not shown) | 11.1%
34 | Cc1cc(N2CCN(c3nc(-c4ccccc4)cs3)CC2)c2ccccc2n1 | -7.92%
35 | Cc1ccc(C23CC4CC(CC(NC(=O)NCCN(C)C)(C4)C2)C3)cc1 | -6.95%
36 | CCOC(=O)c1c(S(=O)(=O)N2CCc3ccccc32)c(C)n(C)c1C | 2.83%
37 | CCn1c(SCC(=O)Nc2ccc(S(N)(=O)=O)cc2)nnc1-c1ccccc1OC | 7.25%
38 | CC(C)(C)NC(=O)C12CCC(C)(c3nc4ccccc4nc31)C2(C)C (stereo not shown) | 9.01%
39 | COc1ccc(-c2noc(CN(C)C3CCOCC3)n2)cc1 | -1.29%
40 | Cc1onc(-c2ccccc2)c1CNC(=O)Nc1ccccc1 | 13.2%
41 | Cc1ncc([N+](=O)[O-])n1CC(=O)NC1CCCCC1 | 5.1%
42 | Cc1cccc(NC(=O)C2CCCN(C(=O)Nc3ccccc3)C2)c1C (stereo not shown) | -1.89%
43 | Cc1ccc2[nH]c3c(=O)n(CC(=O)Nc4ccccc4N4CCN(C)CC4)ncc3c2c1 | 3.92%
44 | Cc1ccccc1OCCC(=O)OCC(=O)NC1CCS(=O)(=O)C1 (stereo not shown) | 18.5%

Row | Compound | hERG current change (%, negative = inhibition) at 1uM
45 | O=C(NCCc1ccccc1)C1c2ccccc2C(=O)N1Cc1cccs1 (stereo not shown) | 6.82%
46 | O=C(NCc1ccccn1)C1CC(=O)N(C2CCCC2)C1 (stereo not shown) | 11.8%
47 | COc1ccc(Oc2cc(C(F)(F)F)cnc2C(N)=O)cc1 | 15.8%
48 | COc1ccc(Cl)cc1N(C)C(=O)CCNC(=O)Cn1cnc2ccccc2c1=O | 11.2%
49 | Cc1ccc(C)c(NC(=O)C(Sc2ncnc3ccccc23)c2ccccc2)c1 (stereo not shown) | 7.99%
50 | Cn1nnc2c(C(N)=O)ncn2c1=O | 0.556%
51 | CCOC(=O)c1[nH]c2ccc(OCC)cc2c1NC(=O)CN1CCN(c2ccccn2)CC1 | -8.9%
52 | CN(C)S(=O)(=O)c1ccc(NC(=O)CNc2cc(S(=O)(=O)N3CCCC3)ccc2OCC(F)(F)F)cc1 | -3.08%
53 | CC1(C)CC(=O)C(C=NCCN2CCN(C3CC(=O)N(c4ccc(Br)cc4)C3=O)CC2)=C(O)C1 (stereo not shown) | 2.91%
54 | O=C(N1CCCCC1)C1(c2ccccc2)CCCCC1 | 12.9%
55 | CCC(C)(C)n1nnnc1CN1CCN(c2ccc(OC)cc2)CC1 | 1.88%
56 | Cc1cccc(CSc2nnc(-c3cccs3)n2Cc2ccco2)c1 | -2.15%
57 | COc1ccc(C2C(C#N)=C(N)N(c3ncn[nH]3)C3=C2C(=O)CCC3)cc1 (stereo not shown) | 25.9%
58 | CCCSc1nnc(NC(=O)CSc2sc3c(O)cc(=O)[nH]c3c2C#N)s1 | -0.729%
59 | CC(=O)Nc1ccc(NC(=O)CSc2nc3nc(-c4cccs4)cc(C(F)(F)F)c3c(=O)[nH]2)cc1 | 12.7%
60 | CC(=O)NCCc1ccc(S(=O)(=O)N2CCN(c3nc(-c4ccccc4)c(C)s3)CC2)cc1 | 10.7%
61 | S=C(NCc1ccco1)N1CCOCC1 | 11.5%
62 | CCOC(=O)c1ccc(NC(=S)N(CCCN2CCN(CC)CC2)Cc2cccs2)cc1 | -40.2%
63 | O=C(/C=C/c1ccc(Cl)cc1)Nc1ccc(S(=O)(=O)Nc2ncccn2)cc1 | 4.3%
64 | COc1cccc(NC(=S)N2CCN(c3ccc([N+](=O)[O-])cc3)CC2)c1 | -9.45%
65 | CCC(C(=O)N1CCN(c2cccc(Cl)c2)CC1)c1ccccc1 (stereo not shown) | 3.36%
66 | O=C(c1cc2cc(C(F)(F)F)ccc2s1)N1CCOCC1 | 8.65%

Row | Compound | hERG current change (%, negative = inhibition) at 1uM
67 | Cc1ccc(NC(=O)c2c(-c3c(F)cccc3Cl)noc2C)cc1F | 2.88%
68 | CCN(CC)c1ccc(C(=O)OCC(=O)c2ccco2)cc1 | 14.3%
69 | COc1ccc(C(=O)COC(=O)CN2C(=O)C3C4CCC(C4)C3C2=O)cc1 (stereo not shown) | 0.592%
70 | O=C(c1ccncc1)N1CCN(C(=O)c2ccco2)CC1 | 11.8%
71 | O=c1[nH]cc(-c2ccc(Br)cc2)n1Cc1ccccc1 | 9.7%
72 | COC(=O)/C=C1\SC(N2CCOCC2)=C(c2ccc(OC)cc2)C1=O | -1.69%
73 | COc1cc(NC(=O)CN2C(=O)C(C)N(c3ccc(C)cc3)C2=O)cc(OC)c1 (stereo not shown) | 12.4%
74 | CN1CC(=O)N(C)c2ncn(Cc3ccccc3)c2C1=O | 9.16%
75 | O=C(Nc1nnc(CCS(=O)(=O)c2ccc(Br)cc2)s1)c1ccc([N+](=O)[O-])cc1 | -0.413%
76 | CCN(CC)S(=O)(=O)c1ccc(C)c(N=C=S)c1 | 11.2%
77 | O=S1(=O)CC2NC(=S)N(c3cccc(Br)c3)C2C1 (stereo not shown) | 13.8%
78 | N#C/C(=C(O)\C=C\c1ccccc1)c1nc2ccccc2[nH]1 | 12.5%
79 | COc1ccc2nc(NC(=O)Cn3cnc4ccccc4c3=O)sc2c1 | 10.5%
80 | CCOC(=O)C1CCN(S(=O)(=O)c2c[nH]c(=O)[nH]c2=O)CC1 | -11.5%
81 | NNC(=S)Nc1ccc(S(=O)(=O)N2CCOCC2)cc1 | 12.3%
82 | CC(=O)Sc1nc(-c2ccccc2)[nH]c1S(=O)(=O)c1ccc(C)cc1 | 0.575%
83 | COc1cc2c(cc1OC)/C(=C/c1ccc(Br)cc1)C(=O)OC2 | 6.28%
84 | Cc1cc(=O)oc2cc(OCCSCCN3CCOCC3)ccc12 | 13%
85 | COc1ccc(NC(=O)CN2CCN(CC(=O)Nc3ccccc3Cl)CC2)c(OC)c1 | -48%
86 | COc1ccc(NC2CC(=O)NC2=O)cc1 (stereo not shown) | 10.3%
87 | CC1=C(/C=N/Nc2ccc([N+](=O)[O-])cc2[N+](=O)[O-])C(C)(C)CCC1 | -2.48%
88 | CCOC(=O)N1CCN(S(=O)(=O)N2CCCC(C(=O)NCCc3ccc(OCC)c(OCC)c3)C2)CC1 (stereo not shown) | 3.78%

From PMC4336329 (PLoS ONE, 2015)
